{
  "source": "PubChem BioAssay (Tox21)",
  "note": "Values joined by “and” are separate entries in the source; they are usually repeats but may differ in a detail not shown here. Identical values can stand only once. This list was built around the results that the source calls inconclusive (neither active nor inactive); the mix of calls is not that of the screen. A potency beside an inconclusive call is a rough fit, not a confirmed value. Some compounds were tested as several samples or in several runs, with calls that do not always agree. Active and inactive are the calls of the source. Unless noted, calls follow the shape of the dose curve; as a rule, active = well fitted cell-killing curve with a large enough effect in the repeat runs; inconclusive = weak or mixed curves, or effect the other way; inactive = no such curve, though single readings can be large or run the other way. Potency is read from the fitted curve at half-maximal effect; tags tell the direction and shape of the fitted curve.",
  "data": [
    {"experiment": "qHTS assay to identify small molecule antagonists of the peroxisome proliferator-activated receptor gamma (PPARg) signaling pathway - cell viability counter screen (AID 743194); also: nearly all actives have a fitted effect of over 55% in size", "settings": "PPARg-bla HEK293H viability, CellTiter-Glo luminescence, 17 h, co-treated with 50 nM rosiglitazone; activity change, negative = cytotoxicity: at 62.6 µM (top of the series) unless noted", "outline": "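PPARg-UAS-bla HEK293H cells were plated, rested 5 h at 37 C, then treated with compounds plus rosiglitazone (50 nM final) for 17 h at 37 C; viability was then read by CellTiter-Glo luminescence after 30 min at room temperature.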", "values": [
      {"smiles": "CC1=CC(=O)c2ccccc2C1=O", "Potency": "active: 11 µM and active: 26.6 µM"},
      {"smiles": "CC(CN1c2ccccc2Sc2ccccc21)N(C)C", "note": "(stereo not given)", "Potency": "inconclusive: 24.8 µM [cytotoxic, full curve, poor fit]"},
      {"smiles": "CN(C)C(=O)C1(N2CCCCC2)CCN(CC[C@@]2(c3ccc(Cl)c(Cl)c3)CN(C(=O)c3ccccc3)CCO2)CC1", "Potency": "active: 16.2 µM"},
      {"smiles": "CCCCCCCCCCCCCC[P+](CCCC)(CCCC)CCCC", "note": "(tested in a mixture with another compound)", "Potency": "active: 0.277 µM"},
      {"smiles": "CCCCCCCCCCCCCCCCCC[N+](C)(C)C", "Potency": "active: 27.6 µM"},
      {"smiles": "CCN(CC)C(=S)SSC(=S)N(CC)CC", "Potency": "inconclusive: 34.7 µM [cytotoxic, partial curve, poor fit] and inconclusive: 89.1 nM [cytotoxic, full curve, poor fit]"},
      {"smiles": "Cc1cc(F)ccc1-c1cc(N2CC[C@@H](O)[C@H]2CO)ncc1N(C)C(=O)C(C)(C)c1cc(C(F)(F)F)cc(C(F)(F)F)c1", "Potency": "active: 43 µM"},
      {"smiles": "C[C@]12CC[C@@H]3c4ccc(O)cc4CC[C@H]3[C@@H]1CC[C@@H]2OC(=O)CCC1CCCC1", "Potency": "inconclusive: 54.9 µM [cytotoxic, single point] and inconclusive: 2.98 µM [cytotoxic, single point]"}
    ]},
    {"experiment": "qHTS assay for small molecule agonists of the antioxidant response element (ARE) signaling pathway (AID 743202; active = well fitted activation curve with a large enough effect in the signal ratio in the repeat runs, not every such curve was filed as active; inconclusive = weak or mixed curves, or effect the other way; inactive = no such curve, though single readings can be large or run the other way; the % refers to the signal ratio; as to activation: % is scaled to controls: 0 for no effect and ±100 for the full control effect)", "settings": "HepG2 ARE-bla reporter, beta-lactamase FRET, 16 h; activation: at 73.3 µM (top of the series) unless noted", "outline": "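Steps: seed ARE-bla HepG2 cells (2,000/well); incubate 5 h at 37 C; add compounds by pin tool; incubate 16 h at 37 C; add FRET substrate; read fluorescence after 2 h at RT.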", "values": [
      {"smiles": "CC(C)(C)CC(C)(C)c1ccccc1O", "Potency": "inconclusive: 61.4 µM [falling, partial curve]"},
      {"smiles": "Cc1ccc2nc(-c3ccc(N)cc3)sc2c1S(=O)(=O)O", "Potency": "inconclusive: 33.8 µM [rising, single point]"},
      {"smiles": "C=C1C(CCl)(CCl)C2(Cl)C(Cl)C(Cl)C1(Cl)C2(Cl)Cl", "note": "(stereo not given)", "Potency": "inconclusive: 8.53 µM"},
      {"smiles": "CCc1cc(Cc2cc(CC)cc(C(C)(C)C)c2O)c(O)c(C(C)(C)C)c1", "Potency": "inconclusive: 30.6 µM [falling, full curve]"},
      {"smiles": "O=C(CCCCCCCCc1cccnc1)N1CCC(C=C(c2ccccc2)c2ccccc2)CC1", "Potency": "inconclusive: 30.6 µM [falling, full curve]"},
      {"smiles": "O=C(Oc1cccc2cccnc12)c1ccccc1", "Potency": "inconclusive: 5.96 µM [rising, full curve]"},
      {"smiles": "CN(C)c1ccc(SC#N)cc1", "activation": "inconclusive: 17.1%"},
      {"smiles": "CCCCCCCCCCCCc1ccc(O)cc1", "Potency": "inconclusive: 54.5 µM"},
      {"smiles": "CCCCCCCCCOC(=O)c1ccc(O)cc1", "Potency": "inconclusive: 60.3 µM [falling, partial curve]"},
      {"smiles": "CCC(C)(C)c1ccc(CC(C)CN2C[C@@H](C)O[C@@H](C)C2)cc1", "note": "(stereo not given in full)", "Potency": "inconclusive: 29.8 µM [rising, partial curve, poor fit]"},
      {"smiles": "Oc1c(Cl)cc(Cl)c2cccnc12", "Potency": "inconclusive: 13.3 µM [falling, partial curve, poor fit]"},
      {"smiles": "CC1=C(/C=C/C(C)=C/C=C/C(C)=C\\C=O)C(C)(C)CCC1", "Potency": "inconclusive: 0.0163 µM [falling, full curve, poor fit]"},
      {"smiles": "Clc1ccc2n[nH]nc2c1", "Potency": "inconclusive: 21.7 µM [falling, partial curve]"},
      {"smiles": "Clc1nc(C(Cl)(Cl)Cl)c(Cl)c(Cl)c1Cl", "Potency": "inconclusive: 27.3 µM [falling, partial curve]"},
      {"smiles": "CC(=O)c1ccc(S(=O)(=O)NC(=O)NC2CCCCC2)cc1", "Potency": "inconclusive: 48.6 µM [rising, partial curve, poor fit]"},
      {"smiles": "CCCCCCCCCCCCN1CCCC1=O", "Potency": "inconclusive: 68.6 µM"},
      {"smiles": "C=CC(=O)OCC(CO)(COCC(COC(=O)C=C)(COC(=O)C=C)COC(=O)C=C)COC(=O)C=C", "Potency": "inconclusive: 53.8 µM [falling, partial curve]"},
      {"smiles": "CC(C)(C)c1ccc(O)c(O)c1", "Potency": "active: 28.2 µM and active: 24.3 µM"},
      {"smiles": "C=CC(=O)OCCOCCOCCOCCOC(=O)C=C", "Potency": "active: 24.5 µM and active: 27.1 µM"},
      {"smiles": "CN[C@H]1CC[C@@H](c2ccc(Cl)c(Cl)c2)c2ccc(S(N)(=O)=O)cc21", "Potency": "inconclusive: 48.6 µM [falling, partial curve]"},
      {"smiles": "O=c1n(CC2CO2)c(=O)n(CC2CO2)c(=O)n1CC1CO1", "note": "(stereo not given)", "Potency": "inconclusive: 2.71 µM and active: 4.33 µM"},
      {"smiles": "C[C@H]1O[C@@H](O[C@H]2CC[C@@]3(C)[C@H](CC[C@@H]4[C@@H]3C[C@@H](O)[C@]3(C)[C@@H](C5=CC(=O)OC5)CC[C@]43O)C2)C[C@H](O)[C@@H]1O[C@H]1C[C@H](O)[C@H](O[C@H]2C[C@H](O)[C@H](O[C@@H]3O[C@H](CO)[C@@H](O)[C@H](O)[C@H]3O)[C@@H](C)O2)[C@@H](C)O1", "Potency": "inconclusive: 3.76 µM [full curve]"}
    ]}
  ]
}
